Measured values from patent US7595299B2, “Peptides as NS3-serine protease inhibitors of hepatitis C virus” (priority 2000, dated 2009).
Read-outs that look alike come from different tables or passages of the source. Starred links: 1 amine or outer side, 2 acyl side, 3 side chain; linkers in the order of their positions; H or OH if unused. Non-standard residues stand in square brackets, D forms with d. Residues, ends and D or L forms follow the SMILES beside them. ξ: configuration not given here. *: point of attachment. Phe(3-CF3) = N[C@@H](Cc1cccc(C(F)(F)F)c1)C(=O)O; Benzoyl(4-SO2NH2) = NS(=O)(=O)c1ccc(C(=O)*)cc1; Gly(piperidin-4-yl) = N[C@H](C(=O)O)C1CCNCC1; X22 = O=C(C(N[*:1])c1ccc(Oc2ccccc2)cc1)[*:2]; Bip = N[C@@H](Cc1ccc(-c2ccccc2)cc1)C(=O)O; Benzoyl(4-COOH) = O=C(O)c1ccc(C(=O)*)cc1; Phe(4-Br) = N[C@@H](Cc1ccc(Br)cc1)C(=O)O; X1 = O=C(c1ccc(N2CCN([*:1])CC2)nc1)[*:2]; Isobutyloxycarbonyl = CC(C)COC(=O)*; X2 = O=C(C(=O)[*:2])C(CC1CC1)N[*:1]; Gly(cPent) = N[C@H](C(=O)O)C1CCCC1; NMeAla(cPr) = CN[CH](CC1CC1)C(=O)O; X7 = O=C(C(=O)[*:2])C(N[*:1])C1CC1; Benzoyl(4-F) = O=C(c1ccc(F)cc1)*; X30 = O=C(C(OC1CCCCO1)c1ccccc1)*; X4 = CCCC(N[*:1])C(=O)C(=O)[*:2]; Ala(cPr) = N[CH](CC1CC1)C(=O)O; AllylGly = C=CC[C@H](N)C(=O)O; Gly(cPr) = N[CH](C(=O)O)C1CC1; NMeL = CN[C@@H](CC(C)C)C(=O)O; X23 = C/C=C/CC(CC(=O)*)C(=O)O; Chg = N[CH](C(=O)O)C1CCCCC1; Phg = N[CH](C(=O)O)c1ccccc1; Tle = CC(C)(C)[C@H](N)C(=O)O; ξAla(cPr) = NC(CC1CC1)C(=O)O; Ethoxycarbonyl = CCOC(=O)*; ξPhg = NC(C(=O)O)c1ccccc1; X12 = O=C(C(O)c1ccccc1)*; PhAc = O=C(Cc1ccccc1)*; Boc = CC(C)(C)OC(=O)*; X24 = O=C(Cc1ccsc1)*; OBn = c1ccc(CO*)cc1; OtBu = CC(C)(C)O*

Molecular target: Recombinant heterodimeric HCV NS3/NS4A protease (strain 1a) (Hepatitis C virus genotype 1a, UniProt P27958)
Experiment: biochemical
[1] = HCV protease continuous assay, Table 1, read-out: Ki* Range

Row | SMILES | Ki [1] [nM] | further results
1 | CCCC(NC(=O)[C@H](CC(C)C)NC(=O)[C@@H](NC(C)=O)C1CCCCC1)C(=O)C(=O)NCC(=O)NC(C(=O)NCC(=O)OC)c1ccc(Oc2ccccc2)cc1 (stereo partly shown) [Example 28] (Ac-[Chg]L[X4]G[X22]G-OMe) | 101 to 1000 | –
2 | CCCC(NC(=O)[C@H](CC(C)C)NC(=O)[C@@H](NC(=O)c1ccc(C(=O)O)cc1)C1CCCCC1)C(=O)C(=O)NCC(=O)N[C@H](C(=O)O)c1ccccc1 (stereo partly shown) ({Benzoyl(4-COOH)}-[Chg]L[X4]G[Phg]-OH) | – | Ki (Table 3, solid phase compounds, read-out: Ki* CLASS): 101 to 1000 nM
3 | CC(C)COC(=O)NC(C(=O)NC(CC1CC1)C(=O)NC(C(=O)C(=O)NCC(=O)NC(C(=O)OC(C)(C)C)c1ccccc1)C1CC1)C1CCCCC1 (stereo not shown) [Example 103] (Isobutyloxycarbonyl-[Chg][Ala(cPr)][X7]G[Phg]-OtBu; configuration not given here) | > 1000 | –
4 | CC(C)(C)OC(=O)C(NC(=O)CNC(=O)C(=O)C(CC1CC1)NC(=O)C(CC1CC1)NC(=O)C(NC(=O)C(OC1CCCCO1)c1ccccc1)C1CCCCC1)c1ccccc1 (stereo not shown) [Example 109] (X30-[Chg][Ala(cPr)][X2]G[Phg]-OtBu; configuration not given here) | 101 to 1000 | –
5 | O=C(CNC(=O)C(=O)C(CC1CC1)NC(=O)C(CC1CC1)NC(=O)C(NC(=O)Cc1ccccc1)C1CCCCC1)NC(C(=O)O)c1ccccc1 (stereo not shown) [Example 132] (PhAc-[Chg][Ala(cPr)][X2]G[Phg]-OH; configuration not given here) | 101 to 1000 | –
6 | CCCC(NC(=O)[C@H](CC(C)C)NC(=O)[C@@](C)(NC(=O)c1ccc(S(N)(=O)=O)cc1)C1CCCCC1)C(=O)C(=O)NCC(=O)N[C@H](C(=O)O)c1ccccc1 (stereo partly shown) [Example 85] | > 1000 | –
7 | C=CC[C@H](NC(=O)[C@@H](NC(=O)OCC(C)C)C1CCCCC1)C(=O)NC(CCC)C(=O)C(=O)NCC(=O)N[C@H](C(=O)OC(C)(C)C)c1ccccc1 (stereo partly shown) [Example 35] (Isobutyloxycarbonyl-[Chg][AllylGly][X4]G[Phg]-OtBu) | > 1000 | –
8 | CCCC(NC(=O)[C@H](CC(C)C)NC(=O)[C@@H](NC(=O)OCC(C)C)C1CCN(C(=O)c2ccccc2)CC1)C(=O)C(=O)NCC(=O)N[C@H](C(=O)O)c1ccccc1 (stereo partly shown) [Example 51] | – | Ki: 101 to 1000 nM
9 | CCCC(NC(=O)[C@H](CC(C)C)NC(=O)[C@@H](NC(=O)OCC(C)C)C1CCNCC1)C(=O)C(=O)NCC(=O)N[C@H](C(=O)O)c1ccccc1 (stereo partly shown) [Example 45] (Isobutyloxycarbonyl-[Gly(piperidin-4-yl)]L[X4]G[Phg]-OH) | > 1000 | –
10 | CCCC(NC(=O)[C@H](Cc1ccc(Br)cc1)NC(=O)[C@@H](NC(=O)OC(C)(C)C)C1CCCCC1)C(=O)C(=O)NCC(=O)NC(C(N)=O)c1ccccc1 (stereo partly shown) [Example 6] (Boc-[Chg][Phe(4-Br)][X4]G[ξPhg]-NH2) | > 1000 | –
11 | CCCC(NC(=O)[C@H](Cc1cccc(C(F)(F)F)c1)NC(=O)[C@@H](NC(=O)OC(C)(C)C)C1CCCCC1)C(=O)C(=O)NCC(=O)NC(C(N)=O)c1ccccc1 (stereo partly shown) [Example 12] (Boc-[Chg][Phe(3-CF3)][X4]G[ξPhg]-NH2) | – | Ki: > 1000 nM
12 | O=C(CNC(=O)C(=O)C(CC1CC1)NC(=O)C(CC1CC1)NC(=O)C(NC(=O)C(O)c1ccccc1)C1CCCCC1)NC(C(=O)O)c1ccccc1 (stereo not shown) [Example 110] (X12-[Chg][Ala(cPr)][X2]G[Phg]-OH; configuration not given here) | < 100 | –
13 | CC(C)COC(=O)NC(C(=O)NC(CC1CC1)C(=O)NC(CC1CC1)C(=O)C(=O)NCC(=O)NC(C(=O)O)c1ccccc1)C1CC1 (stereo not shown) [Example 112] (Isobutyloxycarbonyl-[Gly(cPr)][Ala(cPr)][X2]G[Phg]-OH; configuration not given here) | 101 to 1000 | –
14 | CCCC(NC(=O)[C@H](CC(C)C)NC(=O)[C@@H](NC(=O)c1ccc(F)cc1)C1CCCCC1)C(=O)C(=O)NCC(=O)N[C@H](C(=O)O)c1ccccc1 (stereo partly shown) [Example 100] ({Benzoyl(4-F)}-[Chg]L[X4]G[Phg]-OH) | 101 to 1000 | –
15 | CC(C)COC(=O)N[C@H](C(=O)NC(CC1CC1)C(=O)NC(CC1CC1)C(=O)C(=O)NCC(=O)NC(C(=O)N(C)C)c1ccccc1)C(C)(C)C (stereo partly shown) [Example 130] (Isobutyloxycarbonyl-[Tle][ξAla(cPr)][X2]G[ξPhg]-NMe2) | < 100 | –
16 | CCCC(NC(=O)[C@H](CC(C)C)NC(=O)[C@@H](NC(=O)OCC(C)C)C1CCCCC1)C(=O)C(=O)NCC(=O)NC(C(=O)NC1CCCCC1)c1ccc(Oc2ccccc2)cc1 (stereo partly shown) [Example 26] | > 1000 | –
17 | CCCC(NC(=O)[C@H](CC(C)C)NC(=O)[C@@H](NC(=O)Cc1ccsc1)C1CCCCC1)C(=O)C(=O)NCC(=O)N[C@H](C(=O)O)c1ccccc1 (stereo partly shown) [Example 101] (X24-[Chg]L[X4]G[Phg]-OH) | 101 to 1000 | –
18 | CCCC(NC(=O)[C@H](CC(C)C)NC(=O)[C@@H](NC(=O)OCC(C)C)C1CCN(C(=O)c2ccc(S(N)(=O)=O)cc2)CC1)C(=O)C(=O)NCC(=O)N[C@H](C(=O)O)c1ccccc1 (stereo partly shown) [Example 53] | 101 to 1000 | –
19 | CCCC(NC(=O)[C@H](CC(C)C)N(C)C(=O)[C@@H](NC(=O)OCC(C)C)C1CCCCC1)C(=O)C(=O)NCC(=O)NC(C(=O)N(C)C)c1ccccc1 (stereo partly shown) [Example 128] (Isobutyloxycarbonyl-[Chg][NMeL][X4]G[ξPhg]-NMe2) | 101 to 1000 | –
20 | CCCC(NC(=O)[C@H](CC(C)C)NC(=O)[C@@H](NC(=O)c1ccc(S(N)(=O)=O)cc1)C1CCCC1)C(=O)C(=O)NCC(=O)N[C@H](C(=O)O)c1ccccc1 (stereo partly shown) [Example 74] ({Benzoyl(4-SO2NH2)}-[Gly(cPent)]L[X4]G[Phg]-OH) | 101 to 1000 | –
21 | CCCC(NC(=O)[C@H](Cc1ccc(-c2ccccc2)cc1)NC(=O)[C@@H](NC(=O)OCC(C)C)C1CCCCC1)C(=O)C(=O)NCC(=O)N[C@H](C(=O)O)c1ccccc1 (stereo partly shown) [Example 37] (Isobutyloxycarbonyl-[Chg][Bip][X4]G[Phg]-OH) | > 1000 | –
22 | CC(C)COC(=O)NC(C(=O)NC(CC1CC1)C(=O)NC(C(=O)C(=O)NCC(=O)NC(C(=O)O)c1ccccc1)C1CC1)C1CCCCC1 (stereo not shown) [Example 104] (Isobutyloxycarbonyl-[Chg][Ala(cPr)][X7]G[Phg]-OH; configuration not given here) | > 1000 | –
23 | CCCC(NC(=O)[C@H](CC(C)C)NC(=O)[C@@H](NC(=O)OCC(C)C)C1CCN(C(=O)CC(C)(C)C)CC1)C(=O)C(=O)NCC(=O)N[C@H](C(=O)O)c1ccccc1 (stereo partly shown) [Example 55] | > 1000 | –
24 | CC(C)COC(=O)NC(C(=O)N(C)C(CC1CC1)C(=O)NC(CC1CC1)C(=O)C(=O)NCC(=O)NC(C(=O)N(C)C)c1ccccc1)C1CCCCC1 (stereo not shown) [Example 117] (Isobutyloxycarbonyl-[Chg][NMeAla(cPr)][X2]G[Phg]-NMe2; configuration not given here) | 101 to 1000 | –
25 | CCCC(NC(=O)C(CC1SCCC[S+]1[O-])NC(=O)C(NC(=O)OCC(C)C)C1CCCCC1)C(=O)C(=O)NCC(=O)NC(C(=O)OC(C)(C)C)c1ccccc1 (stereo not shown) [Example 39] | > 1000 | –
26 | C/C=C/CC(CC(=O)N[C@H](C(=O)N[C@@H](CC(C)C)C(=O)NC(CCC)C(=O)C(=O)NCC(=O)N[C@H](C(=O)OCc1ccccc1)c1ccccc1)C1CCCCC1)C(=O)O (stereo partly shown) [Example 24] (X23-[Chg]L[X4]G[Phg]-OBn) | 101 to 1000 | –
27 | CCCC(NC(=O)C(CCN1C(=O)c2ccccc2C1=O)NC(=O)C(NC(=O)OC(C)(C)C)C1CCCCC1)C(=O)C(=O)NCC(=O)N[C@H](C(N)=O)c1ccccc1 (stereo partly shown) [Example 8] | > 1000 | –
28 | CCOC(=O)N1CCN(c2ccc(C(=O)NC(C(=O)NC(CC3CC3)C(=O)NC(CC3CC3)C(=O)C(=O)NCC(=O)NC(C(=O)OC(C)(C)C)c3ccccc3)C3CCCCC3)cn2)CC1 (stereo not shown) [Example 107] (Ethoxycarbonyl-[X1][Chg][Ala(cPr)][X2]G[Phg]-OtBu; configuration not given here) | > 1000 | –
